Test results from the supplement of paper PMC4967469.
pIC50: −log10 of the molar value. Lines with a small IC50 respond at low doses; a fit beyond the top or the lowest dose is shown as a bound at that dose. The AUC spans the tested range (256-fold, ending at the top dose) of the same fit: 1 means no effect, lower means more sensitive. The top dose, if marked as inferred, comes from the curve model; the source does not state it.

Compound: Cc1ccc(-c2c(C(=O)CF)n(CCCO)c3ncnc(N)c23)cc1 [FMK]
Assay: Viability of human cancer cell lines after 72 h of drug (GDSC screen)
Details: top dose inferred
Method: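 Human cancer cell lines in 384-well plates, medium with 10% serum, drug for 72 h over a 256-fold dose range (nine 2-fold or five 4-fold steps up to the top dose). Adherent lines were fixed and stained with the nucleic acid dye Syto60, suspension lines read with resazurin; signal relative to control wells, capped at 0 and 100%. One two-parameter sigmoid per drug and line, fitted in a mixed model over all curves with the slope shared within a line.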

Cell Line | AUC | pIC50
SF268 (glioma, adherent, top dose 20 µM) | 0.966 | < 4.70
SF295 (glioma, adherent, top dose 20 µM) | 0.974 | < 4.70
SF539 (glioma, adherent, top dose 20 µM) | 0.984 | < 4.70
SH-4 (melanoma, adherent, top dose 20 µM) | 0.932 | < 4.70
SHP-77 (small cell lung carcinoma, semi-adherent, top dose 20 µM) | 0.991 | < 4.70
SIG-M5 (acute myeloid leukaemia, suspension, top dose 20 µM) | 0.961 | < 4.70
SISO (cervix, adherent, top dose 20 µM) | 0.965 | < 4.70
SJRH30 (rhabdomyosarcoma, adherent, top dose 20 µM) | 0.981 | < 4.70
SJSA-1 (bone, adherent, top dose 20 µM) | 0.983 | < 4.70
SK-CO-1 (large intestine, adherent, top dose 20 µM) | 0.989 | < 4.70
SK-ES-1 (Ewing sarcoma, semi-adherent, top dose 20 µM) | 0.966 | < 4.70
SK-HEP-1 (liver, adherent, top dose 20 µM) | 0.979 | < 4.70
SK-LMS-1 (soft tissue, adherent, top dose 20 µM) | 0.986 | < 4.70
SK-LU-1 (lung adenocarcinoma, adherent, top dose 20 µM) | 0.977 | < 4.70
SK-MEL-1 (melanoma, suspension, top dose 20 µM) | 0.993 | < 4.70
SK-MEL-2 (melanoma, adherent, top dose 20 µM) | 0.984 | < 4.70
SK-MEL-3 (melanoma, adherent, top dose 20 µM) | 0.967 | < 4.70
SK-MEL-5 (melanoma, adherent, top dose 20 µM) | 0.969 | < 4.70
SK-MEL-24 (melanoma, adherent, top dose 20 µM) | 0.978 | < 4.70
SK-MEL-28 (melanoma, adherent, top dose 20 µM) | 0.986 | < 4.70
SK-MEL-30 (melanoma, adherent, top dose 20 µM) | 0.958 | < 4.70

Cell Line | AUC | pIC50
SK-MES-1 (lung squamous cell carcinoma, adherent, top dose 20 µM) | 0.977 | < 4.70
SK-MG-1 (glioma, adherent, top dose 20 µM) | 0.97 | < 4.70
SK-MM-2 (myeloma, suspension, top dose 20 µM) | 0.986 | < 4.70
SK-N-AS (neuroblastoma, adherent, top dose 20 µM) | 0.958 | < 4.70
SK-N-DZ (neuroblastoma, adherent, top dose 20 µM) | 0.982 | < 4.70
SK-N-SH (neuroblastoma, adherent, top dose 20 µM) | 0.983 | < 4.70
SK-OV-3 (ovary, adherent, top dose 20 µM) | 0.935 | < 4.70
SK-PN-DW (Ewing sarcoma, adherent, top dose 20 µM) | 0.983 | < 4.70
SK-UT-1 (soft tissue, adherent, top dose 20 µM) | 0.988 | < 4.70
SKG-IIIa (cervix, adherent, top dose 20 µM) | 0.983 | < 4.70
SKN (uterus, adherent, top dose 10.24 µM) | 0.958 | < 4.99
SLVL (B-cell lymphoma, suspension, top dose 20 µM) | 0.938 | < 4.70
SN12C (kidney, adherent, top dose 20 µM) | 0.986 | < 4.70
SNB75 (glioma, adherent, top dose 20 µM) | 0.968 | < 4.70
SNG-M (endometrium, adherent, top dose 20 µM) | 0.739 | 5.23
SNU-182 (liver, adherent, top dose 10.24 µM) | 0.96 | < 4.99
SNU-387 (liver, adherent, top dose 20 µM) | 0.979 | < 4.70
SNU-398 (liver, adherent, top dose 20 µM) | 0.965 | < 4.70
SNU-423 (liver, adherent, top dose 20 µM) | 0.948 | < 4.70
SNU-449 (liver, adherent, top dose 20 µM) | 0.975 | < 4.70
SNU-475 (liver, adherent, top dose 20 µM) | 0.98 | < 4.70

Cell Line | AUC | pIC50
SNU-C1 (large intestine, suspension, top dose 20 µM) | 0.964 | < 4.70
SNU-C2B (large intestine, adherent, top dose 20 µM) | 0.95 | < 4.70
SR (lymphoid neoplasm, suspension, top dose 20 µM) | 0.975 | < 4.70
ST486 (Burkitt lymphoma, suspension, top dose 20 µM) | 0.936 | < 4.70
STS-0421 (soft tissue, adherent, top dose 20 µM) | 0.894 | < 4.70
SU8686 (pancreas, adherent, top dose 20 µM) | 0.975 | < 4.70
SU-DHL-1 (anaplastic large cell lymphoma, suspension, top dose 20 µM) | 0.992 | < 4.70
SU-DHL-4 (B-cell lymphoma, suspension, top dose 20 µM) | 0.997 | < 4.70
SU-DHL-5 (B-cell lymphoma, suspension, top dose 20 µM) | 0.987 | < 4.70
SU-DHL-6 (B-cell lymphoma, suspension, top dose 20 µM) | 0.963 | < 4.70
SU-DHL-8 (B-cell lymphoma, suspension, top dose 20 µM) | 0.962 | < 4.70
SU-DHL-10 (B-cell lymphoma, suspension, top dose 20 µM) | 0.997 | < 4.70
SU-DHL-16 (B-cell lymphoma, suspension, top dose 20 µM) | 0.996 | < 4.70
SUIT-2 (pancreas, adherent, top dose 20 µM) | 0.912 | < 4.70
SUP-B15 (lymphoblastic leukaemia, suspension, top dose 20 µM) | 0.935 | < 4.70
SUP-HD1 (Hodgkin lymphoma, suspension, top dose 20 µM) | 0.986 | < 4.70
SUP-M2 (anaplastic large cell lymphoma, suspension, top dose 20 µM) | 0.972 | < 4.70
SUP-T1 (T-cell lymphoblastic leukaemia, suspension, top dose 20 µM) | 0.935 | < 4.70
SW13 (adrenal gland, adherent, top dose 20 µM) | 0.988 | < 4.70
SW48 (large intestine, adherent, top dose 20 µM) | 0.984 | < 4.70
SW156 (kidney, adherent, top dose 20 µM) | 0.981 | < 4.70

Cell Line | AUC | pIC50
SW620 (large intestine, adherent, top dose 20 µM) | 0.974 | < 4.70
SW626 (ovary, adherent, top dose 20 µM) | 0.938 | < 4.70
SW780 (bladder, adherent, top dose 20 µM) | 0.976 | < 4.70
SW837 (large intestine, adherent, top dose 20 µM) | 0.967 | < 4.70
SW872 (soft tissue, adherent, top dose 20 µM) | 0.989 | < 4.70
SW900 (lung squamous cell carcinoma, adherent, top dose 20 µM) | 0.969 | < 4.70
SW948 (large intestine, adherent, top dose 20 µM) | 0.981 | < 4.70
SW954 (urogenital system, adherent, top dose 20 µM) | 0.956 | < 4.70
SW962 (urogenital system, adherent, top dose 20 µM) | 0.97 | < 4.70
SW982 (soft tissue, adherent, top dose 20 µM) | 0.983 | < 4.70
SW1088 (glioma, adherent, top dose 20 µM) | 0.975 | < 4.70
SW1116 (large intestine, adherent, top dose 20 µM) | 0.983 | < 4.70
SW1271 (small cell lung carcinoma, adherent, top dose 20 µM) | 0.966 | < 4.70
SW1417 (large intestine, adherent, top dose 20 µM) | 0.98 | < 4.70
SW1463 (large intestine, adherent, top dose 20 µM) | 0.976 | < 4.70
SW1573 (lung adenocarcinoma, adherent, top dose 20 µM) | 0.981 | < 4.70
SW1710 (bladder, adherent, top dose 20 µM) | 0.984 | < 4.70
SW1783 (glioma, adherent, top dose 20 µM) | 0.99 | < 4.70
SW1990 (pancreas, adherent, top dose 10.24 µM) | 0.983 | < 4.99
